This note sets out measurements from paper PMC4242493.

This is one part of the list. The list includes weakly bound sequences.

The experiment deals with MaxL homodimer (UniProt P61244). Kind of experiment: universal protein-binding microarray (PBM). Particulars: PBS-based mixture, 10 nM His-tagged protein dimer, 2% milk, 200 ng/uL BSA, 50 ng/uL salmon testes DNA, 0.02% TX-100; detection with Alexa 488 anti-His …; high values mean tight binding; most listed sequences are background and not binding sites; double strand, one strand shown.
UniProt P61244, sequence (P61244 whole entry): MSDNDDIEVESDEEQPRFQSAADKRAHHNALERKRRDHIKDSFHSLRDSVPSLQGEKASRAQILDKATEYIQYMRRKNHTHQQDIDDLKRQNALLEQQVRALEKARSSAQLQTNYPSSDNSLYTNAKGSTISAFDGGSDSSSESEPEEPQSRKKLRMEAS
In the case of AAATTTAG, the binding signal (normalized occupancy) stood at 0.0709. ACAGGGCG: the binding signal (normalized occupancy) worked out at 0.0749. AGGCTCCC: the binding signal (normalized occupancy) came out at 0.0678. For CCGGCCAC, the binding signal (normalized occupancy) came to 0.07.

On to CTCATGAG, for which the binding signal (normalized occupancy) amounted to 0.0946. Take AGAGGATA: the binding signal (normalized occupancy) was determined as 0.0778.

Consider CAACGCAG, for which the binding signal (normalized occupancy) came to 0.0711. Consider ACGGTCCC, for which the binding signal (normalized occupancy) turned out to be 0.0698. On to ACTGCTAG, for which the binding signal (normalized occupancy) worked out at 0.0657. Take CTCCCAAC: the binding signal (normalized occupancy) is 0.0733. Regarding AGAACCAT, the binding signal (normalized occupancy) amounted to 0.0758.

For CGATACCA, the binding signal (normalized occupancy) was found to be 0.074.

Regarding CTAGCGAC, the binding signal (normalized occupancy) was determined as 0.0684. The result for CGTTAATC reads 0.0776; that for CAGGTGGA, 0.0861; that for AAGCCGAG, 0.0678. Consider AGAGTAGA, for which the binding signal (normalized occupancy) was found to be 0.0773. For the sequence CTGAAAGC, the binding signal (normalized occupancy) was 0.077. Take AAATGTAT: the binding signal (normalized occupancy) amounted to 0.0812.

In the case of TCTCCAAA, the binding signal (normalized occupancy) is 0.0803.

In the case of AGCTATCG, the binding signal (normalized occupancy) turned out to be 0.0727.

On to GTGGTGGA, for which the binding signal (normalized occupancy) is 0.0781.

Take CAAAGGAC: the binding signal (normalized occupancy) was determined as 0.071.

CAAGACGA: the binding signal (normalized occupancy) amounted to 0.0663. The figure for CTCTGTGA is 0.0724; for CAGTCGCG it is 0.071. AGACAGGC: the binding signal (normalized occupancy) came out at 0.0706.

For the sequence AAACGTGA, the binding signal (normalized occupancy) turned out to be 0.099.

With ATAGAACG, the binding signal (normalized occupancy) came to 0.0822. Consider CATGAGGC, for which the binding signal (normalized occupancy) amounted to 0.109. Turning to CCGTTAGA, the binding signal (normalized occupancy) stood at 0.0774. The result for CGAGCCCA reads 0.0685. The figure for GCCATGGC is 0.0823.

For the sequence CAATCCAG, the binding signal (normalized occupancy) is 0.0696. The result for CGCTAGCA reads 0.0683; that for CACAGCAC, 0.0807; that for CTGATATC, 0.0798.

With ACAGAACC, the binding signal (normalized occupancy) is 0.0709. The result for AAGTGGGC reads 0.0709; that for CCGCGGAC, 0.0649. On to TATCGGGA, for which the binding signal (normalized occupancy) was 0.0777. For the sequence AGACCGCC, the binding signal (normalized occupancy) came out at 0.0762. Take ATTAGATC: the binding signal (normalized occupancy) was 0.0788. For the sequence AATACTCC, the binding signal (normalized occupancy) worked out at 0.0791. Take AGAAATCC: the binding signal (normalized occupancy) worked out at 0.0744. For GTAACTCA, the binding signal (normalized occupancy) was 0.0757.

Turning to GTCTCTGA, the binding signal (normalized occupancy) turned out to be 0.0723.

With AACAACAA, the binding signal (normalized occupancy) amounted to 0.0753. Consider AGCAGCTG, for which the binding signal (normalized occupancy) was 0.075. Consider CCAACAGC, for which the binding signal (normalized occupancy) came out at 0.0701. TGATAGCA: the binding signal (normalized occupancy) was determined as 0.0855. On to ATGCTATC, for which the binding signal (normalized occupancy) was 0.081.

Turning to CGATCTAA, the binding signal (normalized occupancy) was found to be 0.0754.

For GGGAACGA, the binding signal (normalized occupancy) was found to be 0.0803. GCTAATAA: the binding signal (normalized occupancy) came to 0.0758. AGTGAAGG: the binding signal (normalized occupancy) came to 0.0765. With ATCAACCA, the binding signal (normalized occupancy) was determined as 0.0763. The figure for CAAGCGTA is 0.0693; for CGTCCCGC it is 0.0716; for GCAGATCA it is 0.0828. The figure for ATCACTGG is 0.0746; for CAATAGCA it is 0.0786; for CGAGTAAG it is 0.0704. Consider AACCGTCG, for which the binding signal (normalized occupancy) was 0.0702. Turning to TAGATACA, the binding signal (normalized occupancy) was determined as 0.0837. As for CTGTTGCA, the binding signal (normalized occupancy) was found to be 0.0748. The figure for CGTTTTGA is 0.074; for ACCCCTCA it is 0.0844; for CTCGTGAC it is 0.104. AATTCTCG: the binding signal (normalized occupancy) is 0.0745.

For GCGATTAC, the binding signal (normalized occupancy) was determined as 0.0679. Take ATCTGCCG: the binding signal (normalized occupancy) was determined as 0.0719.

With CATTGATC, the binding signal (normalized occupancy) is 0.0827.

In the case of GGAAGCAA, the binding signal (normalized occupancy) stood at 0.0714. The figure for AGTATAAC is 0.0795; for ATCGATCA it is 0.0769. In the case of GAGAACTA, the binding signal (normalized occupancy) amounted to 0.0732.

With GCAACTCA, the binding signal (normalized occupancy) is 0.0733. For CGTGCCCA, the binding signal (normalized occupancy) was found to be 0.0858. With GGACGGCC, the binding signal (normalized occupancy) was determined as 0.0678. Regarding CGCGCGGC, the binding signal (normalized occupancy) is 0.0872.

As for CACGAACC, the binding signal (normalized occupancy) was determined as 0.075. On to ACTCGGTG, for which the binding signal (normalized occupancy) was 0.0736. Consider CAGCGTGC, for which the binding signal (normalized occupancy) came out at 0.118. For ACTGCGCA, the binding signal (normalized occupancy) stood at 0.0752. As to CCTACATC, the binding signal (normalized occupancy) worked out at 0.0782. Regarding GACTTCGC, the binding signal (normalized occupancy) turned out to be 0.0743. The figure for AGAATGGA is 0.0768; for ATCAGACC it is 0.0809. In the case of ATCTTCTG, the binding signal (normalized occupancy) is 0.075.

Turning to TCGTGACA, the binding signal (normalized occupancy) came out at 0.0851.

As for GTACTTCA, the binding signal (normalized occupancy) is 0.0757.

Take CGCGGTCA: the binding signal (normalized occupancy) was 0.077. The result for CAACTATG reads 0.0846; that for ACGCCGCT, 0.0763; that for GGTCATTA, 0.0819.

As for AATCTAGG, the binding signal (normalized occupancy) turned out to be 0.0746. For the sequence CCACACAG, the binding signal (normalized occupancy) worked out at 0.0788.

As for GAATGCTC, the binding signal (normalized occupancy) was 0.0683. With CTCCGAAA, the binding signal (normalized occupancy) was 0.0683. Consider ACAGCAAT, for which the binding signal (normalized occupancy) was 0.0739. With TCATGAGA, the binding signal (normalized occupancy) worked out at 0.086. The figure for ACATGTCA is 0.0911. For AATAACAA, the binding signal (normalized occupancy) came out at 0.0746. On to ATACTCAC, for which the binding signal (normalized occupancy) turned out to be 0.0831. For ACTGTAGA, the binding signal (normalized occupancy) came out at 0.0752. Consider CGGATGGC, for which the binding signal (normalized occupancy) is 0.0731. In the case of AGTACCCC, the binding signal (normalized occupancy) is 0.0847. The figure for AAGGTGAT is 0.0842; for GGGTGCGA it is 0.0821.
